Source: publication PMC4336329 (PLoS ONE, 2015)
The campaign covered roughly 310,000 compounds. About 14,000 (4.5%) showed an effect of 50% or more. Effects have a minus sign here. This is one part of the list.
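Note: peak tail current of the secondary pulse compared with the same well before compound.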

What follows are compounds tested against human ether-à-go-go-related gene (hERG) potassium channel (human, UniProt Q12809) (assay: primary screen, population patch clamp on CHO cells stably expressing hERG).
human ether-à-go-go-related gene (hERG) potassium channel, sequence (Q12809 whole entry, looked up): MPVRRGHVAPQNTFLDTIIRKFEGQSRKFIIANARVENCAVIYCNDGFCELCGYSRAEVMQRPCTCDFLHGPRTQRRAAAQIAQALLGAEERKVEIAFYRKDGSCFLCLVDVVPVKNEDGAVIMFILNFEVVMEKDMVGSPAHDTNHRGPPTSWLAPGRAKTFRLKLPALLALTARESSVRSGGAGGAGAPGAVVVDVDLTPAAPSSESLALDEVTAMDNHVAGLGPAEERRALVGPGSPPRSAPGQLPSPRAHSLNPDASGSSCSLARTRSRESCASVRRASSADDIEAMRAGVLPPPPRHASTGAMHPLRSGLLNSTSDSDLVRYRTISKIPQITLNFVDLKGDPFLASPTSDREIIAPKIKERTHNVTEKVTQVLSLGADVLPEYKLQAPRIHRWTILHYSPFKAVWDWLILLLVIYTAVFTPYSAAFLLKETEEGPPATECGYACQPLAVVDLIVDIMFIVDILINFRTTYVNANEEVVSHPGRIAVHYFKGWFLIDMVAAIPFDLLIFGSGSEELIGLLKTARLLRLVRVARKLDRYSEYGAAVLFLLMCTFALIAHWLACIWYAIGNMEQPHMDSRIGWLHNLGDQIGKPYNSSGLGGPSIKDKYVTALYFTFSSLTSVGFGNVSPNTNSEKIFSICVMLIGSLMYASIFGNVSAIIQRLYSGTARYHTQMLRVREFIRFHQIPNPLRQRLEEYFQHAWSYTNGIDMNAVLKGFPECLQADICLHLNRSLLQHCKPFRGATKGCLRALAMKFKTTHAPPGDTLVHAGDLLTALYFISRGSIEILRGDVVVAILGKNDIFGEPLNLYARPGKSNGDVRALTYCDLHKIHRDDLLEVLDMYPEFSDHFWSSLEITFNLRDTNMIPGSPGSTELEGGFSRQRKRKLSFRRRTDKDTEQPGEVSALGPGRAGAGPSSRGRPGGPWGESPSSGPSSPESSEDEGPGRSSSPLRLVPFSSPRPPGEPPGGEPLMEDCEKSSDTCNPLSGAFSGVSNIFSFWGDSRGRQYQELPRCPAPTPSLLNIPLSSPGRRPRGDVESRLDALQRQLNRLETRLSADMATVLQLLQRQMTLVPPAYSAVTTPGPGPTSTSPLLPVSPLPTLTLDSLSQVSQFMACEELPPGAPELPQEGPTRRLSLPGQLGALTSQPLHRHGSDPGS
COc1ccc(Cl)cc1NC(=O)C/C(C)=N/NC(=O)Cc1ccccc1 was tested, and the “hERG current change (%, negative = inhibition) at 10uM” value was 0.353%.
COc1cccc(/C(C)=N/Nc2ncc(Cl)cc2Cl)c1 was tested, and the “hERG current change (%, negative = inhibition) at 10uM” value was -10.3%.
CCc1nnc(NC(=O)CN2CC(C)OC(C)C2)s1 (stereo not drawn) was tested, and the “hERG current change (%, negative = inhibition) at 10uM” value was 21.1%.
O=C(Cc1ccccc1)Oc1ccccc1N1C(=O)CCC1=O was tested, and the “hERG current change (%, negative = inhibition) at 10uM” value was 3.17%.
With COC(=O)C1=C(c2cc3ccccc3o2)C[C@@H]2CC[C@H]1N2C the “hERG current change (%, negative = inhibition) at 10uM” value was -22.1%.
With CCOC(=O)C1=C(c2ccccc2)NC(N)=NC1c1ccc(OCc2ccc(C(=O)OC)cc2)cc1 (stereo not drawn) the “hERG current change (%, negative = inhibition) at 10uM” value was -43.3%.
For COc1ccc(S(=O)(=O)N2CCN(S(=O)(=O)c3ccc(C(F)(F)F)cc3)CC2)cc1C, the “hERG current change (%, negative = inhibition) at 10uM” value was 4.56%.
In the case of O=S1(=O)NC[C@]23C[C@H](c4ccc(F)cc4)[C@@H](C[C@@H]21)O3, the “hERG current change (%, negative = inhibition) at 10uM” value was -1.82%.
COc1ccc2c(c1)C(C)(CCN)C(=O)N2C (stereo not drawn) was tested, and the “hERG current change (%, negative = inhibition) at 10uM” value was 7.52%.
CCN1CCN(C(=S)c2ccc(Br)cc2)CC1 was tested, and the “hERG current change (%, negative = inhibition) at 10uM” value was -50%.
With CCOC(=O)N1CCN(C(=O)C(C)NC(=O)c2ccco2)CC1 (stereo not drawn) the “hERG current change (%, negative = inhibition) at 10uM” value was 13.5%.
CC(C)OC(=O)c1cc(C(=O)c2cc(Br)ccc2O)coc1=N was tested, and the “hERG current change (%, negative = inhibition) at 10uM” value was 1.18%.
With O=C(O)/C=C/c1cccc(NC(=O)c2ccccc2)c1 the “hERG current change (%, negative = inhibition) at 10uM” value was 9.14%.
In the case of CC(CC(=O)NCc1ccc(Cl)cc1)c1ccccc1 (stereo not drawn), the “hERG current change (%, negative = inhibition) at 10uM” value was -9.48%.
With O=C(COC(=O)Cn1cnc2ccccc21)NCc1ccc(F)cc1 the “hERG current change (%, negative = inhibition) at 10uM” value was 19.6%.
With O=C(/C=C/c1ccc2c(c1)OCO2)Nc1nc(-c2ccc(F)cc2F)cs1 the “hERG current change (%, negative = inhibition) at 10uM” value was 9.08%.
For Cc1ccc2nc(SCC(=O)Nc3cccc(F)c3)nc(=O)n2c1, the “hERG current change (%, negative = inhibition) at 10uM” value was -18.8%.
For Cc1cccc(C)c1NC(=O)Nc1ccc(S(N)(=O)=O)cc1, the “hERG current change (%, negative = inhibition) at 10uM” value was 18.5%.
With CC(=O)N1CCCc2cc(S(=O)(=O)N3CCc4ccccc4C3)ccc21 the “hERG current change (%, negative = inhibition) at 10uM” value was -40.6%.
With CN1CCN(CCC(=O)Nc2ccc(OCc3ccccc3)cc2)CC1 the “hERG current change (%, negative = inhibition) at 10uM” value was -41.6%.
For CC(C)C(=O)Nc1cccc(NC(=O)c2cc3ccccc3o2)c1, the “hERG current change (%, negative = inhibition) at 10uM” value was -22%.
In the case of COc1ccc(Cl)cc1NC(=O)c1cnc2sccn2c1=O, the “hERG current change (%, negative = inhibition) at 10uM” value was 15.3%.
O=C(NC(=S)N1CCN(C/C=C/c2ccccc2)CC1)c1cccnc1 was tested, and the “hERG current change (%, negative = inhibition) at 10uM” value was -1.04%.
In the case of COc1ccc(CNC(=O)/C=C/c2ccc(OCCCF)cc2)cc1, the “hERG current change (%, negative = inhibition) at 10uM” value was -3.42%.
For CN1C(=O)c2ccccc2NC(=O)C1Cc1ccccc1 (stereo not drawn), the “hERG current change (%, negative = inhibition) at 10uM” value was 15.4%.
With CCOc1c(Cl)cc(CNCc2ccncc2)cc1OC.Cl the “hERG current change (%, negative = inhibition) at 10uM” value was 9.45%.
With CC1Cc2ccccc2N1C(=O)COC(=O)c1n[nH]c(=O)c2ccccc12 (stereo not drawn) the “hERG current change (%, negative = inhibition) at 10uM” value was -45.4%.
In the case of Cc1ccccc1NCC(=O)N/N=C/C(Br)=C/c1ccccc1, the “hERG current change (%, negative = inhibition) at 10uM” value was 2.12%.
CCC(C)NS(=O)(=O)c1ccc(S(=O)(=O)N(CC(=O)Nc2ccccc2)Cc2ccco2)cc1 (stereo not drawn) was tested, and the “hERG current change (%, negative = inhibition) at 10uM” value was 23.3%.
In the case of O=c1c2ccccc2nc(-c2cccs2)n1-c1ccccc1, the “hERG current change (%, negative = inhibition) at 10uM” value was 7.32%.
With CN(CCCNC(=O)CCC(=O)N1CCOc2ccccc21)Cc1ccccc1 the “hERG current change (%, negative = inhibition) at 10uM” value was -30.7%.
For CN(c1ccccc1C(=O)Nc1ccc2c(c1)n(C)c(=O)n2C)S(C)(=O)=O, the “hERG current change (%, negative = inhibition) at 10uM” value was 21.5%.
COCCNC(=O)/C(C#N)=C/c1ccc(SC)cc1 was tested, and the “hERG current change (%, negative = inhibition) at 10uM” value was 6.32%.
For Cc1cc(C)c(S(=O)(=O)N2CCCOC2CNC(=O)C(=O)NCc2cccnc2)c(C)c1 (stereo not drawn), the “hERG current change (%, negative = inhibition) at 10uM” value was 8.23%.
Fc1ccccc1OCCCN1CCOCC1 was tested, and the “hERG current change (%, negative = inhibition) at 10uM” value was 9.41%.
CC(Oc1ccccc1)c1ccn[nH]1 (stereo not drawn) was tested, and the “hERG current change (%, negative = inhibition) at 10uM” value was 16.2%.
With Cc1occc1-c1nnc(SCC(=O)N2CCOCC2)n1Cc1ccco1 the “hERG current change (%, negative = inhibition) at 10uM” value was 12.8%.
With C=CCc1cc(/C=C2/NC(=O)N(CC(=O)OC)C2=O)cc(OC)c1O the “hERG current change (%, negative = inhibition) at 10uM” value was 1.91%.
With O=C(O)c1sccc1Oc1ccc(F)cc1[N+](=O)[O-] the “hERG current change (%, negative = inhibition) at 10uM” value was -14.8%.
For COc1cc(CC(=O)N2CCC(n3nccc3NC(=O)C3CC3)CC2)cc(OC)c1OC, the “hERG current change (%, negative = inhibition) at 10uM” value was 12.8%.
In the case of O=c1cc(O)c2sc(Nc3ccc(F)cc3)nc2[nH]1, the “hERG current change (%, negative = inhibition) at 10uM” value was 20%.
CCOC(=O)Cc1c(C)nc(Cc2ccc(OC(C)C)cc2)[nH]c1=O was tested, and the “hERG current change (%, negative = inhibition) at 10uM” value was 8.47%.
For CCn1c(Cc2ccccc2)nnc1SCC(=O)Nc1ccccc1O, the “hERG current change (%, negative = inhibition) at 10uM” value was 11.5%.
With O=C(O)c1ccc(CSc2nc(-c3ccccc3)cc(C(F)(F)F)n2)cc1 the “hERG current change (%, negative = inhibition) at 10uM” value was 9.23%.
For Cc1cc(SCc2ccc(Cl)c(Cl)c2)nc(=O)[nH]1, the “hERG current change (%, negative = inhibition) at 10uM” value was 5.19%.
